Laboratory results reported in PubChem BioAssay AID1345082 (National Center for Advancing Translational Sciences (NCATS), 2018).
In all, about 94,000 compounds went through this assay and about 4,000 (4.3%) were called active. Inconclusive means that the source gave no clear call. Such entries were picked first, then a sample of the others. Calls follow the shape of the dose curve; as a rule, active = well fitted inhibition curve with a large enough effect; inconclusive = small, poorly fitted or top-dose-only effect; inactive = no such curve, though single readings can be large or run the other way. A potency beside an inconclusive call is a rough fit, not a confirmed value.

Experiment: Cytotoxic Profiling in NIH 3T3 Cell Line of Diverse Libraries Using Quantitative High-Throughput Screening; also: nearly all actives have a fitted effect of over 55% in size
Conditions: NIH 3T3 viability, CellTiter-Glo ATP luminescence, 48-72 h; activity change, negative = cytotoxicity: at 96.7 µM (top of the series) unless noted; series mostly up to 96.7 µM
Method in brief: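 ATP-dependent luminescence (CellTiter-Glo) served as the viability signal for NIH 3T3 cells treated with compound for 48 or 72 hr at 37 °C.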
% is scaled to controls: 0 for no effect and ±100 for the full control effect; potency is read from the fitted curve at half-maximal effect; tags tell the direction and shape of the fitted curve.

Row | Structure (SMILES) | activity change, negative = cytotoxicity | Potency | outcome
1 | Cc1cc(C(F)(F)F)nn1CC(=O)N1CCC(c2noc(-c3ccccn3)n2)C1 (stereo not drawn) | inactive: 2.86% |  | 
2 | CC[C@H]1CN(Cc2ccc(OC)cc2O)CC[C@H]1CC(=O)N(C)CC#N | inactive: -24.3% [at 174 µM] |  | 
3 | Cn1cnnc1CC1CCN(Cc2nc3ccccc3n2C)CC1 | inactive: 1.38% |  | 
4 | CCOc1ccccc1CNC(=O)c1cc2cn(C3CCCC3)cc2s1 |  | inconclusive: 50.1 µM [inhibitor, partial curve, poor fit] | 
5 | COCCNc1cc(-c2ccc(F)cc2)nc2c(C)noc12 |  | inconclusive: 89.1 µM [inhibitor, partial curve, poor fit] | 
6 | COc1ccc(CCC(=O)N2CCC3(CC2)CN(Cc2ccc(OC)cc2)C3=O)cc1 |  | inconclusive: 50.1 µM [inhibitor, partial curve, poor fit] | 
7 | COC[C@H]1C[C@@H](NCc2cccc3c2OCO3)[C@H](O)[C@@H]1O |  |  | inactive [at 138 µM]
8 | COc1cccc(CN2CCc3c(cc(C(=O)N4CCOCC4)n3C)C2)c1 | inactive: -7.99% |  | 
9 | COc1ccc(Nc2ccnc(N3CCN(C(=O)NC4CCCC4)CC3)n2)cc1 |  | inconclusive: 35.5 µM [inhibitor, partial curve, poor fit] | 
10 | Fc1cccc(-n2cc(CN3CC[C@H]4CC[C@@H](C3)N4)cn2)c1 |  | inconclusive: 39.8 µM [inhibitor, full curve, poor fit] | 
11 | COc1ccc(F)cc1-c1ccc(CN2CCC(NC(=O)c3ccccn3)C2)cc1 (stereo not drawn) |  | active: 44.7 µM | 
12 | O=C1NCCCCCCN(Cc2ccncc2)[C@@H]2CN(Cc3ccncc3F)CC[C@H]12 | inactive: -11.2% |  | 
13 | COc1ccccc1-c1cc2c(ccn2C)c(C(=O)NCCN2CCNC2=O)n1 |  | active: 100 µM | 
14 | Cn1ncc(N2CCOC(CCNc3nc4ccccc4s3)C2)cc1=O (stereo not drawn) |  | inconclusive: 79.4 µM [inhibitor, partial curve] | 
15 | Cc1ccc(C(=O)NC2CCN(c3ccc4nnc(-c5ccccc5)n4n3)C2)cc1 (stereo not drawn) |  | inconclusive: 28.2 µM [inhibitor, partial curve, poor fit] | 
16 | CCOC(=O)C1(Cc2ccccc2C)CCCNC1 (stereo not drawn) | inactive: -26.1% |  | 
17 | COC(=O)N(C)Cc1cccc(N2CCN(C(=O)OC(C)(C)C)CC2)c1F |  | inconclusive: 44.7 µM [inhibitor, partial curve, poor fit] | 
18 | CC(CCc1ccccc1)NC(=O)C1CN(C2CCCCC2)C(=O)N1 (stereo not drawn) |  | inconclusive: 56.2 µM [inhibitor, partial curve] | 
19 | Cc1ccc(S(=O)(=O)N2CCCC(Cn3c(C4CC4)nc4cccnc43)C2)c(C)c1 (stereo not drawn) |  | inconclusive: 50.1 µM [inhibitor, partial curve, poor fit] | 
20 | CC(C)(C)C(=O)NC1CCCc2c1[nH]c1ccc(F)cc21 (stereo not drawn) |  | inconclusive: 44.7 µM [inhibitor, partial curve, poor fit] | 
21 | O=C(c1cccc(Cl)c1)N1CCC(C(=O)N2CCC(c3nc4ccncc4[nH]3)C2)CC1 (stereo not drawn) | inactive: -18.5% |  | 
22 | COc1ccc2cc1Nc1ccc(cc1)C[C@H](NCc1cccc(C(=O)O)c1)C(=O)N(C)[C@H](C(=O)Nc1ccccc1OCc1ccccc1)C2 |  | inconclusive: 50.1 µM [inhibitor, partial curve, poor fit] | 

Row | Structure (SMILES) | activity change, negative = cytotoxicity | Potency | outcome
23 | CNC(=O)c1cc(C)nc2onc(C3CCCN(C(=O)Cc4ccccn4)C3)c12 (stereo not drawn) | inactive: -5.68% |  | 
24 | Oc1ccc(-c2nc(C3CC3)nc3c2CN(Cc2ccccc2)CC3)cc1 |  | inconclusive: 50.1 µM [inhibitor, partial curve, poor fit] | 
25 | Cc1ccc(S(=O)(=O)NC[C@H]2O[C@@H](CO)[C@@H](O)[C@H]2N2CCCC2)cc1 |  |  | inactive [at 174 µM]
26 | CCc1ccc(NC(=O)N2CCc3c(c4ccccc4n3C)C2)cc1 |  | inconclusive: 44.7 µM [inhibitor, partial curve, poor fit] | 
27 | CN(Cc1ccccc1)C(=O)C[C@@H]1c2nc(NC(=O)c3ccc(F)cc3)sc2C[C@@H]2[C@](C)(CO)[C@H](O)CC[C@]21C |  | active: 25.1 µM | 
28 | Cc1ccsc1CN1CC(Oc2ccccc2C(=O)NCc2ccccc2)C1 |  | active: 39.8 µM | 
29 | C=CCOc1c(OC)ccc2c1CN(Cc1ccccc1)C(=O)CCN2CC(O)COC(C)(C)C (stereo not drawn) |  | inconclusive: 44.7 µM [inhibitor, partial curve, poor fit] | 
30 | CC(C)c1ccc(C(=O)N2CCC(OC3CCN(C)CC3)CC2)cc1 |  | inconclusive: 39.8 µM [inhibitor, partial curve] | 
31 | O=C(NC1CC1)[C@@H]1C[C@H](Oc2cccnc2)CN1C(=O)CCC1CCCC1 |  |  | inactive
32 | COc1ccc(C(=O)NCCC2CCN(C(=O)Nc3ccccc3)CC2)cc1 | inactive: -14.7% |  | 
33 | COc1ccc(CCC(=O)N2CCCC(c3nc(-c4ccccc4)no3)CCNC(=O)CC2)cc1 (stereo not drawn) |  | inconclusive: 70.8 µM [inhibitor, single point] | 
34 | COc1ccccc1CCNC(=O)C1CC(c2ccccc2)CN(C(=O)C2CC2)C1 (stereo not drawn) |  | inconclusive: 35.5 µM [inhibitor, full curve, poor fit] | 
35 | COc1ccc(-c2ccc(C(=O)N3CCC(NC(=O)c4ccc(F)cc4)CC3)cc2)nn1 |  | inconclusive: 31.6 µM [inhibitor, partial curve, poor fit] | 
36 | O=C(O)c1ccc(CN2C[C@H](O)C[C@H]2c2nc(-c3ccncc3)no2)cc1 | inactive: -15.9% [at 174 µM] |  | 
37 | Fc1ccc(NC(=S)N[C@H]2CO[C@H]3[C@@H]2OC[C@@H]3n2nnnc2Oc2ccc(-n3cncn3)cc2)cc1 |  | inconclusive: 44.7 µM [inhibitor, partial curve] | 
38 | O=C(NCc1nnc2c(-c3nc(C4CC4)no3)cccn12)c1nccc2ccccc12 |  | active: 44.7 µM | 
39 | COCCn1c(=O)c(C(=O)N2CCN(C(=O)OC)CC2)nc2cccnc21 | inactive: -0.473% |  | 
40 | CCOCCNC(=O)[C@@H]1CCCN1C(=O)c1cccc(-c2ccccc2OC)c1 |  | inconclusive: 39.8 µM [inhibitor, partial curve, poor fit] | 
41 | CCN(CC)c1cc(CCC(=O)NCc2cccs2)ccn1 | inactive: -0.993% |  | 
42 | O=C(O)C[C@@H]1CCN(C(=O)COc2ccccc2)C[C@@H]1CCN1CCC(n2c(=O)[nH]c3ccccc32)CC1 | inactive: -23.7% |  | 
43 | O=C(Cc1ccc(F)cc1)N1CCC(n2cc(-c3nc(-c4ccccc4)no3)nn2)C1 (stereo not drawn) | inactive: -21.5% |  | 
